# Measurements reported in PubChem BioAssay AID686971 (National Center for Advancing Translational Sciences (NCATS), 2013).
# In all, about 360,000 compounds went through this assay and about 7,500 (2.1%) were called active. Inconclusive results, whose numbers are uncertain, are shown with a selection of clear calls. Calls come from the whole dose curve; as a rule, active = well fitted cell-killing curve with a large enough effect; inconclusive = small, poorly fitted or top-dose-only effect, or effect the other way, or another doubt; inactive = no such curve, though single readings can be large or run the other way. No potency is given beside an inconclusive call; the fits are too rough.
# Assay: qHTS for induction of synthetic lethality in tumor cells producing 2HG: qHTS for the HT-1080-IDH1KD cell line
# Settings: HT-1080 IDH1 knockdown viability, ATP luminescence, 48 h; series mostly up to 46.1 µM
# Procedure, shortened: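 In this qHTS, HT-1080 cells depleted of IDH1 are exposed for 48 h at 37 °C to compound titrations. Toxicity is scored from CellTiter-Glo luminescence, with DMSO as full viability and medium alone as none.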
# Potency is the fitted concentration of half-maximal effect; tags give direction and shape of the fitted curve.
row,SMILES,Potency
1,Cc1ccc(S(=O)(=O)Nc2cccc(-c3cn4ccsc4n3)c2)cc1,"inconclusive [cytotoxic, partial curve]"
2,C=CCC[C@@H](Cc1ccc(F)cc1)C(=O)OC[C@@H](Cc1c[nH]c2ccccc12)NC(=O)[C@@H](CC=C)CC(=O)NCCO,inactive
3,Cc1ccc(C2C(/C=C3/SC(=S)NC3=O)=C(c3cccs3)Oc3ccccc32)cc1 (centres undefined),"inconclusive [cytotoxic, single point]"
4,O=C(O)c1ccc(N/N=C/C2=C(N3CCOCC3)C(=C\c3ccccc3)/CC2)cc1,active: 14.6 µM
5,Oc1ccc2ccccc2c1CNc1ccc2ccccc2c1,active: 20.6 µM
6,Cc1ccccc1CS(=O)(=O)c1nnc([C@H](Cc2ccccc2)NC(=O)OC(C)(C)C)o1,active: 1.78 µM
7,CC(=O)Nc1ccc(OC(=O)c2cc3cc(Br)ccc3oc2=O)cc1,"inconclusive [rising, single point]"
8,Cc1sc(NC(=O)CSc2nnc3scc(-c4ccccc4)n23)c(C#N)c1C,"inconclusive [cytotoxic, single point]"
9,Cc1ccc2c(c1C)-c1c(ccc(C)c1C)C(=O)C2=O,active: 10.3 µM
10,Cc1ccc2c(c1)C(=O)N1[C@H]3c4cc(Cl)ccc4OC[C@@H]3[C@H](c3ccccc3)[C@]1(C)C(=O)N2,"inconclusive [cytotoxic, single point]"
11,CC(C)Cc1ccc(C(C)CC2=CCC(CN(C)C)C2=O)cc1 (centres undefined),"inconclusive [cytotoxic, single point]"
12,O=c1nc2ccc(Cl)cn2c2ccc(S(=O)(=O)N3CCCCC3)cc12,inactive
13,CCOC(=O)c1[nH]c(C)c(C(=O)N2CCc3ccccc32)c1C,active: 1.03 µM
14,CCCC(=O)c1ccc(OCc2cn(CC(=O)c3ccc(O)cc3)nn2)cc1,"inconclusive [cytotoxic, partial curve]"
15,CCOC(=O)C(NC(C)=O)(Nc1ccc(S(=O)(=O)Nc2ncccn2)cc1)C(F)(F)F (centres undefined),inactive
16,Cc1cc(C(=O)N2CCC2(C)C(=O)O)c(C)o1 (centres undefined),inactive
17,Nc1nc(N)c(N=Nc2ccccc2)c(=O)[nH]1,"inconclusive [cytotoxic, partial curve]"
18,Cc1cccc(CN2C(=O)/C(=C\c3ccc(C(=O)NCCN4CCOCC4)cc3)Sc3ccccc32)c1,"inconclusive [cytotoxic, single point]"
19,Clc1ccc2[nH]c3c(c2c1)CCc1cn[nH]c1-3,"inconclusive [cytotoxic, single point]"
20,CCS(=O)(=O)Nc1ccc(C2=NN(C(=O)c3ccco3)C(c3ccc(C)cc3)C2)cc1 (centres undefined),"inconclusive [cytotoxic, single point]"
21,CCNc1ccc(Br)cc(C(=O)/C=C/c2c(Cl)cccc2Cl)c1=O,"inconclusive [cytotoxic, single point]"
22,Fc1ccc(/C=N/NC(=S)Nc2ccc(Cl)cc2Cl)cc1,"inconclusive [cytotoxic, full curve, poor fit]"
23,O=C(NC(=S)Nc1ccc(N2CCCCC2)c(Cl)c1)c1ccc2c(c1)OCCO2,active: 18.4 µM

row,SMILES,Potency
1,Cc1cc(C(=O)N/N=C/c2ccc(N3CCOCC3)cc2)c(C)o1,"inconclusive [cytotoxic, partial curve]"
2,Cc1cccc(Nc2nc(-c3c(C)nc4ccccn34)cs2)c1,"inconclusive [cytotoxic, single point]"
3,C#CC[N+](C)(C)CC#Cc1ccc(C)cc1,"inconclusive [cytotoxic, single point]"
4,Cc1cc(C)c2cc(CN(CCN3CCCC3)C(=O)Nc3ccc(F)cc3)c(=O)[nH]c2c1,active: 18.4 µM
5,Cc1c(Br)c([N+](=O)[O-])nn1CC(=O)Nc1ccc(C(C)C)cc1,active: 23.1 µM
6,CCOC(=O)c1ccc(NC(=O)CSc2nc(N)c(NC(=O)c3ccc(Br)o3)c(=O)[nH]2)cc1,"inconclusive [rising, single point]"
7,CCOC(=O)C1(CCCc2ccccc2)CCN(Cc2cn(CC)nc2C)CC1,"inconclusive [cytotoxic, partial curve]"
8,CCc1nc2ccccc2c(C(=O)Nc2cccc(C)c2)c1C,"inconclusive [cytotoxic, partial curve]"
9,CC(C)CC(/C(O)=C(\C#N)c1nc2ccccc2[nH]1)N1C(=O)c2ccccc2C1=O (centres undefined),"inconclusive [cytotoxic, partial curve]"
10,COc1cccc(CNc2nc(NCc3ccccc3)nc3ccsc23)c1,"inconclusive [cytotoxic, single point]"
11,CCOC(=O)c1[nH]c2c(c1C)C(=O)CC(c1ccc(F)cc1)C2 (centres undefined),active: 2.91 µM
12,CCCCCNC(=O)C(CCc1ccccc1)n1c(=O)c(-c2ccccc2)nc2ccccc21 (centres undefined),"inconclusive [cytotoxic, single point]"
13,CC(C)c1nnc(NC(=O)c2nc(S(=O)(=O)Cc3ccccc3)ncc2Cl)s1,active: 6.51 µM
14,NS(=O)(=O)c1cccc(NC(=O)COc2ncnc3c2cnn3-c2ccccc2)c1,inactive
15,COc1ccccc1CNC(=O)C(=O)NCCC1CCCCN1S(=O)(=O)c1ccccc1 (centres undefined),inactive
16,Cn1cc([N+](=O)[O-])c(C(=O)Nc2nccs2)n1,"inconclusive [cytotoxic, single point]"
17,CCc1nc2ccc(C(=O)NCCOc3ccc(OC)cc3)cn2c1N(C)Cc1cccs1,"inconclusive [cytotoxic, single point]"
18,Cc1cc2nc(-c3ccccc3)c(Cc3ccsc3)n2c(C)c1Br,"inconclusive [cytotoxic, partial curve]"
19,O=C(Nc1nc(-c2ccccc2)cs1)Nc1ccc(F)cc1F,"inconclusive [cytotoxic, single point]"
20,COc1c(Br)cc(Br)cc1/C=N/NC(=O)c1cccnc1,"inconclusive [cytotoxic, single point]"
21,CC(C)C(=O)NC(c1ccc(N(C)C)cc1)c1c(O)ccc2ccccc12 (centres undefined),inactive
22,Cc1ccc(Nc2nc3nonc3[nH]c2=O)cc1Cl,"inconclusive [cytotoxic, partial curve]"
23,Cc1cc(N2CCN(S(=O)(=O)c3ccc(Cl)c(Cl)c3)CC2)c2ccccc2n1,"inconclusive [cytotoxic, single point]"

row,SMILES,Potency
1,O=[N+]([O-])c1cc(CN2CCN(c3ccccc3)CC2)c(O)c2ncccc12,"inconclusive [cytotoxic, full curve]"
2,Clc1cccc(OCCN2CCN(CCOc3cccc(Cl)c3)CC2)c1,"inconclusive [cytotoxic, single point]"
3,CCn1ccnc1CN(C)Cc1c(C(=O)N2C[C@@H](C)O[C@@H](C)C2)nc2ccc(Cl)cn12,inactive
4,Cc1cccc(C)c1NC(=O)C(c1ccccc1)N1CCC2(CC1)OCCO2 (centres undefined),inactive
5,Cc1ccn2cc(CCNC(=O)COc3ccccc3)nc2c1,"inconclusive [rising, single point]"
6,CCOc1ccccc1C(=O)N/N=C/c1cccc2cccnc12,"inconclusive [cytotoxic, partial curve]"
7,C=CCNc1nc(N)c(C(=C(C#N)C#N)c2ccc(Br)cc2)s1,"inconclusive [cytotoxic, single point]"
8,O=C(CC(c1ccc(F)cc1)c1ccco1)Nc1nccs1 (centres undefined),"inconclusive [cytotoxic, single point]"
9,Cc1ccc(N=C2S/C(=C\c3cn(CC(=O)O)c4ccccc34)C(=O)N2C)cc1,"inconclusive [cytotoxic, partial curve]"
10,CC1(C(=O)NS(=O)(=O)c2ccc(C#N)cc2)CCN1C(=O)Cc1ccccc1Cl (centres undefined),"inconclusive [rising, single point]"
11,C=CCOn1c(=O)c(-c2ccc(OCC)cc2)[n+]([O-])c2ccccc21,"inconclusive [rising, single point]"
12,COc1cccc(C2=NOC(C(=O)NCc3cccs3)C2)c1 (centres undefined),active: 20.6 µM
13,CC1CCN(C(=O)c2ccc3c(Cl)c4c(nc3c2)CCCC4)CC1,inactive
14,Cc1ccc(NC(=O)c2cc(NC(=O)c3ccccc3C(=O)O)ccc2N2CCCCC2)cc1,inactive
15,COC(=O)c1cc(NC(=O)/C=C/c2ccc3c(c2)OCO3)cc(C(=O)OC)c1,"inconclusive [cytotoxic, partial curve]"
16,S=c1[nH]nc(-c2ccc(Cl)cc2)n1CC1CCCO1 (centres undefined),"inconclusive [cytotoxic, single point]"
17,COc1ccc(C(=O)Nc2ccccc2)cc1NC(=O)c1cccs1,inactive
18,CCOC(=O)c1cnc2ccc(OC)cc2c1Nc1ccc(N2CCN(C)CC2)cc1,active: 23.1 µM
19,CCOCCCNCC(=O)NC1(C)C2CCC(C2)C1(C)C (centres undefined),inactive
20,COc1ccccc1N1CCN(C2CCCN(C(=O)CCc3cnn(C)c3)C2)CC1 (centres undefined),inactive
21,CC(C)C1N=C(c2ccc3c(c2)OCO3)CC(c2ccccc2O)N1 (centres undefined),"inconclusive [cytotoxic, single point]"
22,CCOC(=O)C1=C(C)NC(C)=C(C(=O)OCC)C1/C=C/c1ccccc1,"inconclusive [cytotoxic, single point]"
23,C/C=C1\COC(C(=O)NCc2cccc(OC)c2OC)(C(F)(F)F)C=C1C=C1CCCCC1 (centres undefined),"inconclusive [cytotoxic, single point]"
